The text below walks through data of PubChem BioAssay (NCI).

Each structure is given as a SMILES string. “And” between values parts separate entries of the source, which are not always exact repeats. Equal values may be shown once.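 Tested at 5 concentrations; 48 h exposure; 96-well plates; endpoints linearly interpolated, else capped at highest concentration. The concentration for 50% growth inhibition is given as GI50. Definition used: TGI = concentration required for complete inhibition of growth.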

The assay concerns NCI-H322M lung. Put plainly: NCI tumour cell line growth inhibition, 48 h.
Take `OCC1OC(OC2(CO)OC(CO)C(O)C2O)C(O)C(O)C1O` (centres undefined): the GI50 is above 100 µM and the TGI was above 100 µM.
The compound `CS(=O)(=O)OCCN1CCN(C(=O)c2ccc(Cl)c3c(Nc4ccc(S(=O)(=O)N=C(N)N)cc4)c4ccccc4nc23)CC1` displayed a TGI above 100 µM.
Still for that read-out and setting: in the case of `Cc1cc(-c2ccc(N=Nc3ccc4c(S(=O)(=O)O)cc(S(=O)(=O)O)c(N)c4c3O)c(C)c2)ccc1N=Nc1ccc2c(S(=O)(=O)O)cc(S(=O)(=O)O)c(N)c2c1O` it was above 100 µM; in that of `CCOC(=O)C[C@@]12CCCN[C@]1(C)CCc1ccccc12`, above 100 µM; in that of `O=C1OC(=O)c2c1nc1ccccc1c2-c1ccccc1`, above 100 µM.
The compound `O=c1[nH]c2c(Nc3c4ccccc4nc4ccccc34)c([N+](=O)[O-])c(Nc3c4ccccc4nc4ccccc34)c([N+](=O)[O-])c2[nH]1` showed a TGI of 3.6 µM.
The same measure, in the same setting: in the case of `CC(C)Oc1cccc(N2C(CCc3c[nH]c4ccc(Br)cc34)=NS(=O)(=O)c3cnccc32)c1` it was above 100 µM.
On the same count and under the same terms, as for `CCOC(=O)N1CCNCCN(C(=O)OCC)CCNCC1`, the figure is above 100 µM.
With `O=C1c2cccc3c(N4CCOCC4)ccc(c23)C(=O)N1CCN1CCN(CCCCCN2CCN(CCN3C(=O)c4cccc5c(N6CCOCC6)ccc(c45)C3=O)CC2)CC1`, the GI50 was 81.3 µM and the TGI was above 100 µM.
On the same counts, the results for `CN(C)CCCOc1ccc(NC2=C(Cl)C(=O)C(Nc3ccc(OCCCN(C)C)cc3)=C(Cl)C2=O)cc1` are 1.3 µM and 2.73 µM.
For the compound `[O-][n+]1c2cccc(O)c2[n+]([O-])c2cccc(O)c21`, the TGI was above 100 µM.
Same read-out and setting: in the case of `[C-]#[O+].[Cl][Sn]([Cl])[Cl].[Cl][Sn]([Cl])[Cl].[Pt].c1cnc2c(c1)ccc1cccnc12` it was 27.4 µM.
As for `COc1cc([C@@H]2c3cc4c(cc3[C@H](SC(=N)N)[C@H]3COC(=O)[C@H]23)OCO4)cc(OC)c1OC`, the GI50 is 0.504 µM and the TGI is above 100 µM.
On the same counts, the results for `NC1=NC(c2ccccc2Cl)c2c(n[nH]c2N)N1` (centres undefined) are 40.2 µM and above 100 µM.
In turn, `C=C1C(=O)O[C@@H]2C[C@@]3(C)[C@H](O)CCC(=C)[C@@H]3C[C@H]12` yielded a TGI of 21.3 µM.
Same read-out and setting: in the case of `COc1ccccc1N=Nc1c(O)ccc2ccccc12` it was above 100 µM; in that of `CC(C)(NO)/C(=N\O)c1ccccc1`, above 10 µM.
For the compound `OCc1ccc(-c2ccc(-c3ccc(CO)o3)o2)o1`, the GI50 was above 62.2 µM and the TGI is above 100 µM.
As to `CC(C)C(NCc1c2ccccc2[n+](C)c2ccccc12)C(=O)O` (centres undefined), the TGI was found to be 26.9 µM.
Same read-out and setting: in the case of `CCc1c(O)nc(Nc2nc3ccccc3[nH]2)[nH]c1=O` it was above 100 µM.
The compound `CCCCCCCCCCCCCCCC(=O)OCC1OC(n2cc(F)c(=O)[nH]c2=O)C(NC(=O)OCc2ccccc2)C(O)C1O` (centres undefined) returned a TGI of 47.5 µM.
For the compound `Cn1cc(-c2ccc3ncc(-c4ccc(CC(=O)Nc5cc(C(C)(C)C)nn5C)cc4)cc3c2)cn1`, the GI50 is 0.57 µM and the TGI is above 20 µM.
For the compound `O=[N+]([O-])/C=C/c1ccc2ccccc2c1`, the TGI is above 60.7 µM.
For the compound `NC(=O)c1nc(-c2c(F)cccc2Cl)oc1Nc1ccc(C(=O)N2CCOCC2)cc1`, the GI50 was 4.57 µM and the TGI is above 100 µM.
The compound `Cc1ccc(C(=O)Nc2ccc(CP(=O)(O)O)cc2CP(=O)(O)O)cc1N` came in with a TGI above 100 µM.
On the same count and under the same terms, as for `O=C(Nc1cccc2ccccc12)c1cc2ccccc2oc1=O`, the figure is above 100 µM.
As to `C#COc1cccc(Nc2ncnc3cc(NC(=O)[C@@H](C)Cl)ccc23)c1`, the GI50 is 23 µM and the TGI is above 62.5 µM.
`OCCN1CCN(c2nc(N3CCCC3)c3nc(Cl)c(NCc4ccccc4)nc3n2)CC1` yielded a TGI of 24.2 µM.
As to `Nc1nc(Cl)c2ncn(Cc3ccc(C45CC6CC(CC(C6)C4)C5)c(OCc4cc(F)c(F)cc4F)c3)c2n1`, the GI50 is 7.49 µM and the TGI was 25.5 µM.
`Cc1ccc(-n2c3nc(=O)n(C)c(=O)c-3nc3ccccc32)c(C)c1` registered a TGI of 29.8 µM.
Same read-out and setting: in the case of `O=c1c2ccccc2nc(-c2cccc(Cl)c2)n1NC1OC(CO)C(O)C(O)C1O` (centres undefined) it was above 100 µM.
Same read-out and setting: in the case of `O=C(N/N=C/c1ccccc1)c1c(F)c(F)c(F)c(F)c1F` it was above 100 µM.
With `O=C(Nc1nc2ccc(S(=O)(=O)Nc3ccc(C4(C(F)(F)F)CC4)cc3)cc2[nH]1)c1cnccn1`, the GI50 was 6.1 µM and the TGI is 19.1 µM.
On the same counts, the results for `COC(=O)c1ccc(NC(N)=NCCC(C)(C)c2ccc(C(F)(F)F)cc2)nc1` are 3.29 µM and 15.1 µM.
On the same counts, the results for `CCOC(=O)c1cn(C)c2c(OC)c3ccccc3c(OC)c2c1=O` are 24 µM and 74.7 µM.
The compound `CN1C(c2ccccc2)CC(O)CC1c1ccccc1` (centres undefined) yielded a TGI above 100 µM.
The same measure, in the same setting: in the case of `CCc1c(OC(C)=O)c2c(NC3OC(COC(C)=O)C(OC(C)=O)C(OC(C)=O)C3OC(C)=O)nc(SC)nc2oc1=O` (centres undefined) it was above 100 µM.
With `CCOC(=O)[C@@H](C)C[C@H](Cc1ccccc1)NC(=O)c1csc([C@@H](C[C@H](C(C)C)N(C)C(=O)CNC(=O)[C@H]2CCCCN2C)OC(C)=O)n1`, the GI50 is 1.17 µM and the TGI is above 14.3 µM.
`COc1cc2c(cc1OC)C1=C(C=O)c3ccc(OC)c(OC)c3C(O)N1CC2` (centres undefined) came in with a TGI above 100 µM.
Same read-out and setting: in the case of `COc1ccc(/C(C=O)=C(\Cl)c2ccc(OC)c(OC)c2)cc1` it was above 100 µM.
Still for that read-out and setting: as for `CC1=NC(=N)N=C(C)C1N=Nc1ccc2nc(C)[nH]c2c1` (centres undefined), the figure is above 100 µM; as for `CC(C)(C)O/N=C/c1cc(NC(=S)c2ccccc2)ccc1Cl`, 70.2 µM.
In the case of `O=C1C2C(C(=O)N1Cc1ccccc1)N(Cc1ccccc1)C(=O)N2Cc1ccccc1` (centres undefined), the TGI is above 100 µM.
The same measure, in the same setting: in the case of `Cc1cc2nc(N3C(=O)/C(=C/Cc4ccco4)N=C3c3ccccc3)sc2cc1C` it was above 100 µM; in that of `CC(C)c1ccc(Cc2ccc(C(C)C)c(NC(=O)C(=O)Cc3cnc4ccccc4n3)c2C(C)C)c(C(C)C)c1NC(=O)C(=O)Cc1cnc2ccccc2n1`, above 100 µM; in that of `O=C(O)c1ccccc1C(=O)c1ccco1`, above 100 µM.
Same read-out and setting: in the case of `CC(C)CNP(=O)(NCC(C)C)Oc1ccc(CC(NC(=O)OCc2ccccc2)C(=O)OCc2ccccc2)cc1` (centres undefined) it was 26.6 µM.
Still for that read-out and setting: in the case of `COc1ccc(C2C(=O)c3ccc(OC)cc3OC2c2cccnc2)cc1` (centres undefined) it was above 100 µM; in that of `O=[N+]([O-])c1cccnc1S(=O)(=O)c1ccccc1`, 35.7 µM.
Consider `CC(C)(C)C(=O)c1c(O)c2ccccc2c2ccccc2c1=O`, for which the TGI was above 100 µM.
Same read-out and setting: in the case of `O=c1c2[nH]cnc2n(-c2ccccc2)c(=S)n1-c1ccccc1` it was above 100 µM; in that of `Cc1ccc(S(=O)(=O)Nc2ccccc2C(C)(C)C)cc1`, 60.5 µM.
The same measure, in the same setting: in the case of `COc1cccc(/C=N/[N-]C(N)=O)c1[O-].[Cu+2].[OH3+]` it was 30.7 µM; in that of `CC(=O)CCC1(C(=O)OCC(C)C)CCCC1=O` (centres undefined), above 100 µM; in that of `Cc1nc2ccncc2[nH]1`, above 100 µM.
Still for that read-out and setting: as for `O=C(Nc1nc(=S)[nH][nH]1)C(=O)C(c1cnc2ccc([N+](=O)[O-])cc2n1)[N+](=O)[O-]` (centres undefined), the figure is above 100 µM; as for `C#Cc1cccc(NC(=O)/C=C\C(=O)O)c1`, above 100 µM; as for `COC(=O)C1CCC(C)CC1=O` (centres undefined), above 100 µM.
Take `O=[N+]([O-])/C=C/c1cc(Cl)c(/C=C/[N+](=O)[O-])cc1Cl`: the TGI amounted to 31.7 µM.
Regarding `COC(=O)C(Cc1ccccc1)NC(=O)C(CNC(=O)OCc1ccccc1)C(=O)OCc1ccccc1` (centres undefined), the TGI was above 100 µM.
On the same count and under the same terms, as for `CC(C)=CC1C(C(=O)OCc2cc3c(cc2Cl)OCO3)C1(C)C` (centres undefined), the figure is above 100 µM.
Still for that read-out and setting: in the case of `CC(=O)c1c(-c2ccc(Cl)cc2)c(C#N)c(=S)n(C2OC(CO)C(O)C(O)C2O)c1C` (centres undefined) it was above 100 µM.
On to `CCCCCCCCCCCCCC(=O)O[C@H]1CC[C@H](NC(=O)[C@H](OC)[C@H](O)[C@@H](O)[C@H](O)/C=C/C(C)C)C(=O)N(C)C1`, for which the GI50 is 0.02 µM and the TGI is above 23.8 µM.
As for `Cc1cccc2c1nc1n2C(=O)c2ccccc2-1`, the TGI is above 100 µM.
Regarding `CC1CCCP(=O)(c2ccccc2)CCC1` (centres undefined), the TGI is above 100 µM.
Same read-out and setting: as for `CCN(CC)CCNc1n[n+]([O-])c2cc([N+](=O)[O-])ccc2[n+]1[O-]`, the figure is 6.48 µM and 8.01 µM and 6.8 µM.
In the case of `O=C(O)c1ccccc1NCn1nc(-c2ccccc2O)oc1=S`, the GI50 was above 100 µM and the TGI was above 100 µM.
`CCOC(=O)C1=C(C)N(NC(N)=O)C2(N)N(NC(N)=O)C(C)=C(C(=O)OCC)C12C#N` (centres undefined) had a TGI above 100 µM.
Consider `Nc1c(C(=O)Nc2ccccc2)sc2nc3c(cc12)C(=O)CCC3`, for which the GI50 was 0.38 µM and the TGI is above 100 µM.
On the same counts, the results for `Oc1cn(-c2ccc(Cl)cc2)nc1-c1n[nH]c(=S)n1-c1ccc(F)cc1` are 22.8 µM and above 100 µM.
For `Cn1c(CO)ccc1-c1ccc(-c2ccc(CO)[se]2)[se]1`, the TGI is above 100 µM.
On the same count and under the same terms, as for `N=C(N)n1cc(/C=N/N=C(N)N)cn1`, the figure is above 100 µM.
For the compound `N#Cc1ccccc1Sc1ccccc1N`, the TGI is above 100 µM.
The compound `CC(C)(C)OC(=O)N[C@H]1CC(=O)c2ccccc2N(CC(=O)O)C1=O` registered a TGI above 100 µM.
As to `Clc1[nH]nc2ccccc12`, the TGI is above 100 µM.
Still for that read-out and setting: as for `COc1cc2c(c3c1c(=O)c1ccccc1n3C)C=C([N+](=O)[O-])C(C)(C)O2`, the figure is above 100 µM.
Consider `COc1cc2c(cc1O)C(Cc1ccc(OCc3ccccc3)c(OCc3ccccc3)c1)N(C(=O)NCCc1ccccc1)CC2` (centres undefined), for which the TGI was above 100 µM.
Still for that read-out and setting: as for `CC(=O)Oc1cc2c(cc1OCC(F)(F)F)[C@H]1CC[C@]3(C)[C@@H](OC(C)=O)CC[C@H]3[C@@H]1CC2=O`, the figure is 38.6 µM; as for `Cc1ccc(NC(=O)CC/C(CC(=O)C(C)(C)C)=N/NC(=O)c2cc3ccccc3cc2O)cc1C`, above 100 µM; as for `CC(C)(C)C1=NO[C@H]2[C@@H](NC(=O)c3ccccc3)CC[C@@H]12`, above 100 µM.
As to `N#CN1CC[C@H](C(=O)Nc2ncc(-c3ccccc3)s2)C1`, the GI50 is 1.78 µM and the TGI is 3.43 µM.
The compound `CCCCCCC(=O)OC[n+]1ccc2c(C)c3[nH]c4ccc(OC)cc4c3c(C)c2c1` came in with a TGI of 1.88 µM.
On the same count and under the same terms, in the case of `COc1ccc(O[C@H](CO)C[C@@H]2COC(C)(C)O2)cc1` it was above 100 µM; in that of `O=c1c2ccc(Cl)cc2oc2c(CSc3ccccc3)cccc12`, above 100 µM.
Same read-out and setting: in the case of `O=C(O)CCCc1ccc2c(c1)C(C(=O)O)CC2` (centres undefined) it was above 100 µM.
